Results as given in the supplement of paper PMC6206098.
± gives the uncertainty stated by the source. The sequences are guide strands of siRNAs; only the seed at positions 2 to 7 varies.

How the values were obtained:
[1] = test system: 3LL; experiment: cell viability relative to siNT1 control; higher = less toxic; conditions: concentration: 10 nM; 96 h; Mus musculus;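 further: Luminescence-based viability of cells reverse transfected in 384-well plates with lipid-complexed siRNAs built on a non-toxic 19mer backbone whose passenger strand carries 2′-O-methyl groups at positions 1 and 2, triplicates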
[2] = test system: H460; experiment: cell viability relative to lipid-only control; HeyA8 human ovarian and H460 human lung cancer; M565 mouse liver and 3LL mouse lung cancer; siNT1 is a non-toxic control siRNA; higher = less toxic; conditions: concentration: 10 nM; 96 h; Homo sapiens
[3] = test system: HeyA8; experiment: as above; conditions: concentration: 10 nM; 96 h; Homo sapiens
[4] = test system: M565; experiment: as above; conditions: concentration: 10 nM; 96 h; Mus musculus
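Wherever cell viability relative to lipid-only control is given: reverse lipid transfection in 384-well plates, in triplicate, of duplexes on a non-toxic 19mer backbone with passenger strand 2′-O-methylated at positions 1 and 2, luminescence viability read-out.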

| Sequence | cell viability [1] | cell viability [2] | cell viability [3] | cell viability [4] |
| --- | --- | --- | --- | --- |
| UUACGUGACAUGUAAACCAAA | 108 ± 7% | 108 ± 6.3% | 105 ± 1.9% | 117 ± 12% |
| UAGGAGAACAUGUAAACCAAA | 82.2 ± 2.9% | 59.2 ± 5.4% | 60.5 ± 12% | 30.6 ± 10% |
| UCCGUGGACAUGUAAACCAAA | 95.7 ± 7.5% | 31.6 ± 3.7% | 59.3 ± 11% | 21.5 ± 8.3% |
| UUGACGUACAUGUAAACCAAA | 75.1 ± 7% | 77.6 ± 9.3% | 88.7 ± 6.9% | 53.5 ± 4.7% |
| UCGCACUACAUGUAAACCAAA | 44.3 ± 12% | 36.4 ± 2.5% | 63.5 ± 4.3% | 19 ± 4% |
| UCAUAUAACAUGUAAACCAAA | 97 ± 31% | 36.1 ± 4.6% | 88.9 ± 3.6% | 64.3 ± 14% |
| UCGAUCCACAUGUAAACCAAA | 67.1 ± 6.5% | 67.8 ± 9.4% | 63.5 ± 1.6% | 25.9 ± 5.7% |
| UGCUGAUACAUGUAAACCAAA | 13.9 ± 6.5% | 69.2 ± 11% | 47.7 ± 5% | 8.4 ± 1.4% |
| UGAUACUACAUGUAAACCAAA | 30.5 ± 4.3% | 31.5 ± 1.6% | 50.2 ± 1.7% | 16.5 ± 2.4% |
| UUAAUCCACAUGUAAACCAAA | 6.77 ± 0.72% | 32.8 ± 1.5% | 37.6 ± 7% | 59.9 ± 6.3% |
| UCGGCGAACAUGUAAACCAAA | 94.7 ± 5.9% | 51.7 ± 5.2% | 58.8 ± 1.9% | 45.8 ± 6.2% |
| UUGGGCUACAUGUAAACCAAA | 11.5 ± 2.7% | 18.5 ± 0.96% | 12.1 ± 0.59% | 28.1 ± 1.7% |
| UGCCCUUACAUGUAAACCAAA | 29 ± 2.3% | 67 ± 9.9% | 31.4 ± 5.5% | 18.5 ± 4.9% |
| UACGUCGACAUGUAAACCAAA | 85.5 ± 10% | 79.7 ± 12% | 79.2 ± 6.6% | 49.4 ± 3.9% |
| UGUCUAUACAUGUAAACCAAA | 45.3 ± 9.3% | 50.1 ± 7.3% | 39.4 ± 1.8% | 37 ± 7.2% |
| UCAAUGGACAUGUAAACCAAA | 56 ± 11% | 50.9 ± 0.76% | 44.6 ± 7.8% | 25.1 ± 2.6% |
| UGUUGAUACAUGUAAACCAAA | 50 ± 6.8% | 37.2 ± 3.4% | 15.5 ± 1.9% | 10.3 ± 1% |
| UUUCUUCACAUGUAAACCAAA | 48.7 ± 1.3% | 53.4 ± 4.6% | 40.9 ± 2.8% | 120 ± 5.2% |
| UAGAGCUACAUGUAAACCAAA | 16.4 ± 1.8% | 48.7 ± 10% | 53 ± 4.4% | 31.1 ± 1.6% |
| UUCUACAACAUGUAAACCAAA | 80.9 ± 5.6% | 79.4 ± 12% | 104 ± 14% | 72.3 ± 9.7% |

| Sequence | cell viability [1] | cell viability [2] | cell viability [3] | cell viability [4] |
| --- | --- | --- | --- | --- |
| UUAUUCAACAUGUAAACCAAA | 39.7 ± 10% | 69 ± 12% | 93.5 ± 5% | 44.2 ± 11% |
| UUCUACGACAUGUAAACCAAA | 103 ± 2.4% | 81.2 ± 16% | 94.8 ± 7.2% | 87.3 ± 19% |
| UACAAACACAUGUAAACCAAA | 88.8 ± 8.9% | 82.1 ± 12% | 70.5 ± 1.8% | 37.7 ± 14% |
| UUCUCGUACAUGUAAACCAAA | 61 ± 9.8% | 59.5 ± 6.3% | 73.1 ± 1.7% | 69.4 ± 5.1% |
| UUCGGGCACAUGUAAACCAAA | 2.45 ± 0.1% | 12.3 ± 1.6% | 8.64 ± 1.6% | 15.4 ± 1.4% |
| UAGCGUGACAUGUAAACCAAA | 79.9 ± 9.8% | 66.3 ± 4.1% | 83.7 ± 12% | 59.2 ± 18% |
| UUCUCAGACAUGUAAACCAAA | 91 ± 2.9% | 40.4 ± 2.4% | 86.2 ± 1.7% | 67.2 ± 14% |
| UCACGAUACAUGUAAACCAAA | 96.4 ± 12% | 36.2 ± 1.4% | 88.5 ± 8.3% | 64.4 ± 6.7% |
| UGGUACUACAUGUAAACCAAA | 49.6 ± 8.3% | 39.9 ± 5.4% | 33.1 ± 3.8% | 23.2 ± 3.7% |
| UAACUUUACAUGUAAACCAAA | 81.7 ± 4.5% | 61.7 ± 4.6% | 69.7 ± 15% | 92.3 ± 20% |
| UUCGUUGACAUGUAAACCAAA | 99.3 ± 24% | 74.9 ± 5% | 88.9 ± 10% | 78.7 ± 12% |
| UUAUACAACAUGUAAACCAAA | 84 ± 11% | 74.5 ± 4% | 92 ± 4.6% | 88.5 ± 13% |
| UUCCAUCACAUGUAAACCAAA | 63.6 ± 2.8% | 43.2 ± 5.4% | 20.6 ± 2.3% | 37.9 ± 2.6% |
| UUAGAGGACAUGUAAACCAAA | 30.9 ± 3.1% | 51 ± 1.4% | 51.7 ± 5.2% | 45.3 ± 13% |
| UAUCCGUACAUGUAAACCAAA | 91.2 ± 6.6% | 73.7 ± 3.4% | 74.3 ± 6.2% | 58.8 ± 14% |
| UAGAACAACAUGUAAACCAAA | 81.5 ± 1.9% | 88.1 ± 12% | 89.8 ± 6% | 78.8 ± 5.3% |
| UGAGGUUACAUGUAAACCAAA | 95.3 ± 8.6% | 50.2 ± 6.2% | 55 ± 4% | 14.3 ± 3.4% |
| UUGGUUAACAUGUAAACCAAA | 97.9 ± 6.3% | 71.1 ± 7.9% | 96.7 ± 5.7% | 87.1 ± 12% |
| UGCUCUGACAUGUAAACCAAA | 53.2 ± 5.8% | 70.4 ± 2.5% | 59.7 ± 4.4% | 21.9 ± 5.4% |
| UCUGUGCACAUGUAAACCAAA | 81 ± 9.4% | 38.8 ± 8.4% | 67.7 ± 3.1% | 32.2 ± 7.6% |

| Sequence | cell viability [1] | cell viability [2] | cell viability [3] | cell viability [4] |
| --- | --- | --- | --- | --- |
| UCCACUAACAUGUAAACCAAA | 101 ± 34% | 64.6 ± 13% | 84.7 ± 5% | 76.8 ± 7.3% |
| UGGAGCCACAUGUAAACCAAA | 10.8 ± 6.5% | 11.6 ± 1% | 5.4 ± 1.2% | 8.84 ± 1.1% |
| UGCGCCCACAUGUAAACCAAA | 38.3 ± 6.1% | 45.8 ± 3.8% | 24 ± 1.7% | 34.7 ± 3.9% |
| UUAUACGACAUGUAAACCAAA | 92.4 ± 8.9% | 80.4 ± 13% | 96.2 ± 16% | 100 ± 17% |
| UUGUCUCACAUGUAAACCAAA | 39 ± 1.4% | 80.7 ± 1.1% | 71.6 ± 6.3% | 100 ± 8.6% |
| UAGUUACACAUGUAAACCAAA | 55.5 ± 10% | 37.8 ± 5.7% | 20.1 ± 1.4% | 12.7 ± 1.6% |
| UCGGUAGACAUGUAAACCAAA | 90 ± 16% | 76.1 ± 11% | 87.2 ± 3.4% | 76.1 ± 11% |
| UAACGUGACAUGUAAACCAAA | 89.9 ± 5.7% | 73.6 ± 19% | 82.5 ± 5.9% | 85.7 ± 21% |
| UAUUAUAACAUGUAAACCAAA | 108 ± 23% | 91.5 ± 10% | 94 ± 7.3% | 95.6 ± 9.2% |
| UUAAAAUACAUGUAAACCAAA | 82.8 ± 11% | 77.4 ± 14% | 93.4 ± 4.8% | 78.9 ± 12% |
| UAUUCAUACAUGUAAACCAAA | 82.7 ± 20% | 76.8 ± 8.2% | 97.3 ± 14% | 81.5 ± 10% |
| UAUUCUAACAUGUAAACCAAA | 99.9 ± 10% | 71.2 ± 2.1% | 95 ± 9.4% | 91.6 ± 19% |
| UAAGGCUACAUGUAAACCAAA | 15.1 ± 7% | 49.3 ± 9.8% | 11.5 ± 1.4% | 7.19 ± 2.5% |
| UGCUUAUACAUGUAAACCAAA | 92.6 ± 12% | 84.6 ± 14% | 74.7 ± 4.4% | 72.4 ± 7.8% |
| UAAGACAACAUGUAAACCAAA | 90.5 ± 6.8% | 69.5 ± 5.8% | 92 ± 9.4% | 71.4 ± 1.5% |
| UACGUCCACAUGUAAACCAAA | 19.2 ± 2.3% | 36 ± 1.6% | 29.9 ± 3.9% | 7.34 ± 1.9% |
| UAGGGGGACAUGUAAACCAAA | 66.7 ± 15% | 25.4 ± 5.8% | 5.57 ± 0.23% | 6.97 ± 0.42% |
| UUCCAGCACAUGUAAACCAAA | 27.5 ± 1.8% | 25.2 ± 1.1% | 51.4 ± 3.4% | 62.8 ± 6.7% |
| UCCAGCAACAUGUAAACCAAA | 103 ± 13% | 71.9 ± 10% | 92 ± 12% | 90.9 ± 28% |
| UACGGAUACAUGUAAACCAAA | 84.7 ± 6.5% | 65.9 ± 7.8% | 65 ± 6.6% | 89.2 ± 7% |
